Among all 220,000 compounds or so, about 16,000 (7.3%) were called active. Inconclusive means that the source gave no clear call. Such entries were picked first, then a sample of the others. The call rests on the fitted dose curve; in most records, active means well fitted inhibition curve with a large enough effect (not every such curve was filed as active); inconclusive means small, poorly fitted or top-dose-only effect, or another doubt; inactive means no such curve, though single readings can be large or run the other way. Potencies of inconclusive entries are left out as doubtful fits.
Target: Aldehyde dehydrogenase 1A1 (Homo sapiens) (UniProt P00352)
UniProt P00352, sequence (P00352 whole entry, looked up): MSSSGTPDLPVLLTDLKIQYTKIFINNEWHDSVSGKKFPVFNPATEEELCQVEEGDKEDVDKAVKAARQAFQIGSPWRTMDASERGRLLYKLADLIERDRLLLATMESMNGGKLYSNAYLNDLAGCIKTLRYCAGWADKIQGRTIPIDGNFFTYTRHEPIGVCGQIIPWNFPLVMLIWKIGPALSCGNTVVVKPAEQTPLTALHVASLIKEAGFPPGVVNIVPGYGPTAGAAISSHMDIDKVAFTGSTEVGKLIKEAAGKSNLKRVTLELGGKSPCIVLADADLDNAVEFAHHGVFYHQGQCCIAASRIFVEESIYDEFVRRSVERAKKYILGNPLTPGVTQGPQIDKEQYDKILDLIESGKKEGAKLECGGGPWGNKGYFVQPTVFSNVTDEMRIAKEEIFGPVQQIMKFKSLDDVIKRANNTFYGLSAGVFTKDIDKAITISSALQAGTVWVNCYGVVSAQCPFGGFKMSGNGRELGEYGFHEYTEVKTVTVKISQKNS
Test: qHTS Assay for Inhibitors of Aldehyde Dehydrogenase 1 (ALDH1A1);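 on activity, negative = inhibition: plate controls were no enzyme wells and a reference inhibitor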
Details: Purified ALDH1A1, NADH fluorescence, propionaldehyde substrate; series mostly up to 75.3 µM
Potency means the concentration at half of the fitted maximal effect; tags describe the fitted curve by direction and shape.

| SMILES | Potency | activity, negative = inhibition |
| --- | --- | --- |
| CCc1ccc(NC(=O)c2cnc3scc(C)n3c2=O)cc1 | inconclusive [inhibitor, single point] |  |
| O=C(CSc1ccc(Cl)cc1)Nc1ncccn1 | inconclusive [inhibitor, single point] |  |
| C/C=C/C=C/C(=O)OC(C)C(=O)Nc1cc([N+](=O)[O-])ccc1OC (stereo not drawn) | inconclusive [inhibitor, single point] |  |
| Cc1cccc2cc(COC(=O)C3CCCCC3)c(=O)[nH]c12 | inconclusive [inhibitor, full curve] |  |
| CN(C)S(=O)(=O)c1cccc(-c2nn(-c3ccccc3)cc2/C=C(\C#N)c2nc3ccccc3[nH]2)c1 | inactive |  |
| COC(=O)c1ccc(NC(=O)CCNS(=O)(=O)c2cccc3nonc23)cc1 | inconclusive [inhibitor, single point] |  |
| O=C(/C=C/c1ccccc1[N+](=O)[O-])NCc1ccncc1 | inconclusive [inhibitor, single point] |  |
| CCN(CC)S(=O)(=O)c1ccc(C(=O)NCc2cccs2)cc1 | inactive |  |
| Nc1nc2c(c(=O)[nH]1)C(c1cccc3ccccc13)C1=C(N2)c2ccccc2C1=O (stereo not drawn) | active: 3.16 µM |  |
| CCCCCCC#Cc1cc(OC)c(OC)cc1C(N1CC(C)c2ccccc21)N1CC(C)c2ccccc21 (stereo not drawn) | inconclusive [inhibitor, partial curve] |  |
| Cc1c(NC2=C(Cl)C(=O)N(c3ccccc3)C2=O)c(=O)n(-c2ccccc2)n1C | inconclusive [inhibitor, single point] |  |
| COc1ccc(CNc2nc(-c3cccnc3)nn2C(=O)CC(C)C)cc1 | inconclusive [inhibitor, single point] |  |
| Cc1cc(-c2nc3ccccc3[nH]2)ccc1N | inconclusive [inhibitor, partial curve] |  |
| CCN(C(C)=O)c1nc(CSc2nnc(NC(C)C)s2)cs1 | inconclusive [inhibitor, partial curve] |  |
| CC(C)Cn1c(-c2ccc(Br)o2)n[nH]c1=S | active: 10 µM |  |
| O=C(CSc1nnc2ccccn12)NC(=O)NC1CCCCC1 | inconclusive [inhibitor, single point] |  |
| CCCCCC(=O)NC(NC(=S)N1CCOCC1)C(Cl)(Cl)Cl (stereo not drawn) | inactive |  |
| CCOc1cc2c3c(c1)C(C)=CC(C)(C)N3C(=O)C2=O | inconclusive [inhibitor, partial curve] |  |
| O=C(CSc1nnc(C2COc3ccccc3O2)o1)Nc1ccc(F)cc1Cl (stereo not drawn) | active: 10 µM |  |
| CCSc1nnc(CSc2ncccn2)n1C | inconclusive [inhibitor, single point] |  |
| CCN(CC)S(=O)(=O)c1cc(C(=O)N(C)CC(=O)Nc2ccc(Cl)cc2)ccc1Cl | inconclusive [inhibitor, partial curve] |  |
| Cc1cc(C)c(C#N)c(SCC(=O)N2CCN(Cc3ccccc3)CC2)n1 | active: 20 µM |  |
| COc1ccc(OC)c(-c2ccc(C(=O)O)o2)c1 | inconclusive [inhibitor, partial curve] |  |
| CCOC(=O)c1cc2c(ccn2C)n1CC(=O)N(CC)CC | inactive |  |
| O=C1CCN1C1(C(=O)NC2CCCCC2)CCCC1 | inactive |  |

| SMILES | Potency | activity, negative = inhibition |
| --- | --- | --- |
| CCCn1c(=O)c2ccccc2n2c(SCC(=O)c3ccc(CC)cc3)nnc12 | inconclusive [inhibitor, single point] |  |
| c1ccc(Oc2cccc(OCCCCSc3ncccn3)c2)cc1 | inactive |  |
| NC(=O)Cn1c(=O)n(C2CCCCC2)c(=O)c2c3c(sc21)CCCCC3 | inconclusive [inhibitor, partial curve] |  |
| Nc1ccc(Br)c2c1C(=O)c1ccccc1C2=O | inconclusive [inhibitor, single point] |  |
| Cc1c(N2C(=O)/C(=C\c3ccc(N(C)C)cc3)N(C)C2=S)c(=O)n(-c2ccccc2)n1C | active: 4.47 µM |  |
| COc1ccc(CC(=O)NCc2ccc3c(c2)OCO3)cc1 | inconclusive [inhibitor, partial curve] |  |
| COc1cccc(-c2ccc(C#N)c(SCC(=O)NCCc3cccc(Cl)c3)n2)c1 | inconclusive [inhibitor, single point] |  |
| CC(=O)N1CCN(C(=S)NC(=O)c2ccc(S(=O)(=O)N3CCOCC3)cc2)CC1 | inactive |  |
| COCC(=O)N1CCC[C@@]2(CCN(Cc3nccs3)C2)C1 | inactive |  |
| O=c1c(-c2ccc(Cl)cc2)nc2cnc(N3CCOCC3)nc2n1Cc1ccc(F)cc1 | inconclusive [inhibitor, partial curve, poor fit] |  |
| O=C(Nc1ccc2nc(-c3ccco3)c(-c3ccco3)nc2c1)N1CCCCCC1 | inconclusive [inhibitor, partial curve] |  |
| CCOc1ccc(NC(=O)Cn2c(=O)n(CC3CCCO3)c(=O)c3ccccc32)cc1 (stereo not drawn) | inactive |  |
| O=C(CSc1ncc(C(F)(F)F)cc1Cl)N1CCN(S(=O)(=O)c2ccccc2)CC1 | inconclusive [inhibitor, partial curve] |  |
| Nc1ccc(S(=O)(=O)c2ccc(NC(=O)c3cccnc3)cc2)cc1 |  | inactive: 3.53% [at 13.5 µM] |
| COc1c(C(=O)Nc2ccc(Cc3ccncc3)cc2)ccc2ccccc12 | inconclusive [inhibitor, single point] |  |
| COC(=O)CCCC(=O)N1CCCC(CNS(=O)(=O)c2ccc(OC)cc2)C1 (stereo not drawn) | inactive |  |
| N/C(=N\OC(=O)CCC1CCCC1)c1cccnc1 | inconclusive [inhibitor, single point] |  |
| Cn1c(SCC(=O)OC2CCCCC2)nnc1-c1ccco1 | inconclusive [inhibitor, full curve] |  |
| CC1=C(/C=C/C(C)=C/C=C/C(C)=C/C=O)C(C)(C)CCC1 | active: 22.4 µM |  |
| C/C=C/Cn1c(SCCCc2ccccc2)nc2c1c(=O)[nH]c(=O)n2C | inconclusive [inhibitor, single point] |  |
| Cc1nnsc1C(=O)NNc1ccc(C(C)C)cc1 | inconclusive [inhibitor, single point] |  |
| CC1CCN(C(=S)c2cccc([N+](=O)[O-])c2)CC1 | inconclusive [inhibitor, single point] |  |
| Cc1cc(/C=C(\C#N)C(=O)NCc2ccco2)c(C)n1C1CCCC1 | inconclusive [inhibitor, single point] |  |
| CCN1CCN(CCCNC(=O)c2csc3c2CCCCC3)CC1 | inactive |  |
| CCOc1cc(CN2CCN(c3ccc(C(C)=O)cc3)CC2)ccc1OC | active: 17.8 µM |  |

| SMILES | Potency | activity, negative = inhibition |
| --- | --- | --- |
| CCOC(=O)c1c(NC(=O)/C=C/C(=O)O)sc(C)c1-c1ccc(C)c(C)c1 | inconclusive [inhibitor, single point] |  |
| CN1Cc2cc(C(=O)c3ccccc3O)cnc2NC1=O | inactive |  |
| COc1ccc(N2C(=O)CC(N3CCN(S(=O)(=O)c4c(F)cccc4F)CC3)C2=O)cc1OC (stereo not drawn) | active: 14.1 µM |  |
| COc1ccc(/C(C)=C2/SC(=S)N(CCC(=O)O)C2=O)cc1 | inconclusive [inhibitor, partial curve] |  |
| N#C/C(C(=O)N1CCCC1)=C1/N=C(N)c2ccccc21 | inconclusive [inhibitor, full curve] |  |
| Cc1cccc(C)c1NC(=O)COc1cccc(/C=N/NC(=O)C(=O)NCc2ccccc2)c1 | inactive |  |
| Cc1cc2c(=O)oc(-c3ccc(F)cc3)nc2s1 | active: 15.8 µM |  |
| Cc1c(-c2nc(N)nc(C3CC3)c2C)nc(N)nc1C1CC1 |  | inactive: -1.6% [at 13.5 µM] |
| CCn1cc(C(=O)NCCN(C)CCc2ccccc2)c(=O)c2cc(S(=O)(=O)N(C)C)ccc21 | inconclusive [inhibitor, partial curve] |  |
| O=C(Nc1ccc(SC(F)F)cc1)C12CCC(CC1)C2 | inactive |  |
| O=C(CC1C(=O)N(c2ccccc2)C(=S)N1c1ccccc1)c1ccc(Br)cc1 (stereo not drawn) | inconclusive [inhibitor, partial curve] |  |
| Nc1nc(SCC(=O)Nc2ccc3c(c2)CCC3)n[nH]1 | inactive |  |
| O=C(CCNc1ccc(Cc2ccncc2)cc1)c1cccc([N+](=O)[O-])c1 | active: 0.398 µM |  |
| CC(NC(=S)N1CCOCC1)c1ccccc1 (stereo not drawn) | inactive |  |
| CSc1nc(-c2ccco2)nn1S(C)(=O)=O | inconclusive [inhibitor, single point] |  |
| Cc1c(Cl)c(-c2n[nH]c(=S)n2-c2ccc(F)cc2)nn1C | inconclusive [inhibitor, single point] |  |
| CC1CCCCN1S(=O)(=O)c1ccc(S(=O)(=O)N(CC(=O)Nc2ccccc2)Cc2cccs2)cc1 (stereo not drawn) | inconclusive [inhibitor, partial curve] |  |
| COc1ccc(CCNC(=O)CSc2nc3[nH]ncc3c(=O)n2-c2ccc(Cl)cc2Cl)cc1OC | inactive |  |
| Cc1ccc2c(Cl)c(C(=O)NCc3cccnc3)sc2c1 | inactive |  |
| CCOC(=O)C(NS(=O)(=O)c1ccccc1)(C(F)(F)F)P(=O)(OCC(C)C)OCC(C)C (stereo not drawn) | inconclusive [inhibitor, single point] |  |
| O=C(Cn1cc(C(=O)C2CCCCC2)c2ccccc21)NCC1CCCO1 (stereo not drawn) | inconclusive [inhibitor, single point] |  |
| CC(=O)Nc1cccc(Oc2nc(C)cc(C)c2C#N)c1 | inconclusive [inhibitor, single point] |  |
| COc1ccccc1C1CC(=O)n2c(nc(-c3ccccc3)c2-c2ccccc2)S1 (stereo not drawn) | inconclusive [inhibitor, partial curve] |  |

Reference: PubChem BioAssay AID1030 (National Center for Advancing Translational Sciences (NCATS), 2008)
